Measured values: US7776883B2, “Quinolin-4-ones as inhibitors of retroviral integrase for the treatment of HIV, AIDS and AIDS related complex (ARC)” (The United States of America as represented by the …, priority 2004, dated 2010)
Values joined by “and” are separate entries in the source; they are usually repeats but may differ in a detail not shown here. Equal values may be shown once.

Tests used:
[1] = molecular target: T1, HIV-1 integrase (Human immunodeficiency virus type 1 group M subtype B, UniProt P04585); assay: biochemical; conditions: IC50 3′-Processing, in vitro, 21-mer U5 LTR DNA, 30 minutes at 37° C.
[2] = molecular target: T1, HIV-1 integrase; assay: biochemical; conditions: in vitro
[3] = IC50 Strand transfer, 21-mer U5 LTR DNA, 30 minutes at 37° C.

| SMILES | IC50 [1] | IC50 [2, 3] | IC50 ([2]; IC50 value for strand transfer) |
| --- | --- | --- | --- |
| CCOC(=O)C(=O)CC(=O)c1cn(Cc2ccc(F)cc2)c2cc(Cl)ccc2c1=O [RDS1788] | > 100 µM | > 100 µM |  |
| O=C(O)C(=O)CC(=O)c1cn(Cc2ccc(F)cc2)c2ccc(F)cc2c1=O [RDS2078, 4-[1-(4-Fluorophenyl)methyl-6-fluoro-1,4-dihydro-4-oxoquinolin-3-yl]-2,4-dioxobutanoic acid] | 2.9 µM | 0.047 µM |  |
| O=C(O)C(=O)CC(=O)c1cn(CCCCc2ccccc2)c2ccccc2c1=O [RDS1981, 4-[1-(4-Phenylbutyl)-1,4-dihydro-4-oxoquinolin-3-yl]-2,4-dioxobutanoic acid] | > 333 µM | < 0.45 µM |  |
| O=C(O)C(=O)CC(=O)c1cn(Cc2ccc(F)cc2)c2cc(F)ccc2c1=O [RDS2022, 4-[1-(4-Fluorophenyl)methyl-7-fluoro-1,4-dihydro-4-oxoquinolin-3-yl]-2,4-dioxobutanoic acid] | 1.9 µM | 0.042 µM |  |
| CCOC(=O)C(=O)CC(=O)c1cn(Cc2ccc3ccccc3n2)c2ccccc2c1=O [RDS1999, 4-[1-(2-Quinolinyl)methyl-1,4-dihydro-4-oxoquinolin-3-yl]-2,4-dioxobutanoic acid ethyl ester] | > 1000 µM | 3.5 µM |  |
| O=C(O)C(=O)CC(=O)c1cn(Cc2ccc3ccccc3c2)c2ccccc2c1=O [RDS1975, 4-[1-(2-Naphthyl)methyl-1,4-dihydro-4-oxoquinolin-3-yl]-2,4-dioxobutanoic acid] | 18 µM | < 0.45 µM |  |
| CCOC(=O)C(=O)CC(=O)c1cn(Cc2ccc(Cl)cc2)c2ccccc2c1=O [RDS2011, 4-[1-(4-Chlorophenyl)methyl-1,4-dihydro-4-oxoquinolin-3-yl]-2,4-dioxobutanoic acid ethyl ester] | > 37 µM | > 37 µM |  |
| CCOC(=O)C(=O)CC(=O)c1cn(Cc2ccc(F)cc2)c2cc(F)ccc2c1=O [RDS2021, 4-[1-(4-Fluorophenyl)methyl-7-fluoro-1,4-dihydro-4-oxoquinolin-3-yl]-2,4-dioxobutanoic acid ethyl ester] | 25 µM | 1.9 µM |  |
| COc1ccc(Cn2cc(C(=O)CC(=O)C(=O)O)c(=O)c3ccccc32)cc1 [RDS2035, 4-[1-(4-Methoxyphenyl)methyl-1,4-dihydro-4-oxoquinolin-3-yl]-2,4-dioxobutanoic acid] | 28 µM | 0.51 µM |  |
| CCOC(=O)C(=O)CC(=O)c1c[nH]c2ccccc2c1=O [RDS1675, 4-(1,4-dihydro-4-oxoquinolin-3-yl)-2,4-dioxobutanoic acid ethyl ester] | > 100 µM | > 100 µM |  |
| CCOC(=O)C(=O)CC(=O)c1cn(Cc2cccc(F)c2)c2ccccc2c1=O [RDS1986, 4-[1-(3-Fluorophenyl)methyl-1,4-dihydro-4-oxoquinolin-3-yl]-2,4-dioxobutanoic acid ethyl ester] | > 12.3 µM | 4.9 µM |  |
| O=C(O)C(=O)CC(=O)c1c[nH]c2ccccc2c1=O [RDS1680, 4-(1,4-dihydro-4-oxoquinolin-3-yl)-2,4-dioxobutanoic acid] | > 100 µM | > 100 µM |  |
| CCOC(=O)C(=O)CC(=O)c1cn(Cc2ccc(F)cc2)c2ccc(Cl)cc2c1=O [RDS1755] | > 100 µM | > 100 µM |  |
| CCOC(=O)C(=O)CC(=O)c1cn(CCCCc2ccccc2)c2ccccc2c1=O [RDS1980, 4-[1-(4-Phenylbutyl)-1,4-dihydro-4-oxoquinolin-3-yl]-2,4-dioxobutanoic acid ethyl ester] | > 333 µM | 120 µM |  |
| O=C(O)C(=O)CC(=O)c1cn(Cc2ccc(F)cc2)c2ccccc2c1=O [RDS1625, 4-[1-(4-fluorophenyl)methyl-1,4-dihydro-4-oxoquinolin-3-yl]-2,4-dioxobutanoic acid] | 2.2 µM and 1.8 µM | 0.0313 µM and 0.047 µM | ~0.05 µM |
| O=C(O)C(=O)CC(=O)c1cn(Cc2cccc(F)c2)c2ccccc2c1=O [RDS1987, 4-[1-(3-Fluorophenyl)methyl-1,4-dihydro-4-oxoquinolin-3-yl]-2,4-dioxobutanoic acid] | 4.6 µM | 0.015 µM |  |
| CCOC(=O)C(=O)CC(=O)c1cn(Cc2ccc([N+](=O)[O-])cc2)c2ccccc2c1=O [RDS2017, 4-[1-(4-Nitrophenyl)methyl-1,4-dihydro-4-oxoquinolin-3-yl]-2,4-dioxobutanoic acid ethyl ester] | > 37 µM | > 37 µM |  |
| CCOC(=O)C(=O)CC(=O)c1cn(Cc2ccccc2)c2ccccc2c1=O [RDS1992, 4-(1-Phenylmethyl-1,4-dihydro-4-oxoquinolin-3-yl)-2,4-dioxobutanoic acid ethyl ester] | > 1000 µM | 0.7 µM |  |

| SMILES | IC50 [1] | IC50 [2, 3] | IC50 ([2]; IC50 value for strand transfer) |
| --- | --- | --- | --- |
| CCOC(=O)C(=O)CC(=O)c1cn(Cc2ccc3ccccc3c2)c2ccccc2c1=O [RDS1974, 4-[α-(2-Naphthyl)methyl-1,4-dihydro-4-oxoquinolin-3-yl]-2,4-dioxobutanoic acid ethyl ester] | > 333 µM | 32 µM |  |
| CCOC(=O)C(=O)CC(=O)c1cn(Cc2ccc(F)cc2)c2ccccc2c1=O [RDS1624, 4-[1-(4-fluorophenyl)methyl-1,4-dihydro-4-oxoquinolin-3-yl]-2,4-dioxobutanoic acid ethyl ester] | > 100 µM | 0.326 µM and 1.76 µM |  |
| CCOC(=O)C(=O)CC(=O)c1cn(Cc2ccc(F)cc2)c2ccc(F)cc2c1=O [RDS2077, 4-[1-(4-Fluorophenyl)methyl-6-fluoro-1,4-dihydro-4-oxoquinolin-3-yl]-2,4-dioxobutanoic acid ethyl ester] | > 37 µM | 0.49 µM |  |
| O=C(O)C(=O)CC(=O)c1cn(Cc2ccc(F)cc2)c2ccc(Cl)cc2c1=O [RDS1787] | 28.7 µM and 6.4 µM | 0.124 µM and 0.403 µM |  |
| O=C(O)C(=O)CC(=O)c1cn(Cc2ccc(F)cc2)c2cc(Cl)ccc2c1=O [RDS1792] | 4 µM and 14 µM | 0.11 µM and 0.021 µM |  |
| CCOC(=O)C(=O)CC(=O)c1c[nH]c2ccc(Cl)cc2c1=O [RDS1754] | > 100 µM | > 100 µM |  |
| O=C(O)C(=O)CC(=O)c1cnc2cc(Cl)ccc2c1O [RDS1794] | > 100 µM | > 100 µM |  |
| O=C(O)C(=O)CC(=O)c1cn(Cc2ccc(Cl)cc2)c2ccccc2c1=O [RDS2012, 4-[1-(4-Chlorophenyl)methyl-1,4-dihydro-4-oxoquinolin-3-yl]-2,4-dioxobutanoic acid] | 22 µM | 0.54 µM |  |
| CCOC(=O)C(=O)CC(=O)c1c[nH]c2cc(Cl)ccc2c1=O [RDS1793] | > 1000 µM | > 1000 µM |  |
| O=C(O)C(=O)CC(=O)c1cn(Cc2ccccc2F)c2ccccc2c1=O [RDS1990, 4-[1-(2-Fluorophenyl)methyl-1,4-dihydro-4-oxoquinolin-3-yl]-2,4-dioxobutanoic acid] | 1.2 µM | 0.016 µM |  |
| O=C(O)C(=O)CC(=O)c1cn(Cc2ccccc2)c2ccccc2c1=O [RDS1993, 4-(1-Phenylmethyl-1,4-dihydro-4-oxoquinolin-3-yl)-2,4-dioxobutanoic acid] | 4 µM | 0.034 µM |  |
| O=C(O)C(=O)CC(=O)c1cn(Cc2c(F)cccc2F)c2ccccc2c1=O [RDS1984, 4-[1-(2,6-Difluorophenyl)methyl-1,4-dihydro-4-oxoquinolin-3-yl]-2,4-dioxobutanoic acid] | 0.7 µM | 0.019 µM |  |
| O=C(O)C(=O)CC(=O)c1cn(Cc2ccc3ccccc3n2)c2ccccc2c1=O [RDS2000, 4-[1-(2-Quinolinyl)methyl-1,4-dihydro-4-oxoquinolin-3-yl]-2,4-dioxobutanoic acid] | 70 µM | 0.4 µM |  |
| O=C(O)C(=O)CC(=O)c1cn(Cc2ccc([N+](=O)[O-])cc2)c2ccccc2c1=O [RDS2018, 4-[1-(4-Nitrophenyl)methyl-1,4-dihydro-4-oxoquinolin-3-yl]-2,4-dioxobutanoic acid] | 27 µM | 0.64 µM |  |
| CCOC(=O)C(=O)CC(=O)c1cn(Cc2ccccc2F)c2ccccc2c1=O [RDS1989, 4-[1-(2-Fluorophenyl)methyl-1,4-dihydro-4-oxoquinolin-3-yl]-2,4-dioxobutanoic acid ethyl ester] | 125 µM | 0.28 µM |  |
| CCOC(=O)C(=O)CC(=O)c1cn(Cc2ccc(OC)cc2)c2ccccc2c1=O [RDS2034, 4-[1-(4-Methoxyphenyl)methyl-1,4-dihydro-4-oxoquinolin-3-yl]-2,4-dioxobutanoic acid ethyl ester] | > 37 µM | > 37 µM |  |
| O=C(O)C(=O)CC(=O)c1c[nH]c2ccc(Cl)cc2c1=O [RDS1786] | > 100 µM | > 100 µM |  |
| CCOC(=O)C(=O)CC(=O)c1cn(Cc2c(F)cccc2F)c2ccccc2c1=O [RDS1983, 4-[1-(2,6-Difluorophenyl)methyl-1,4-dihydro-4-oxoquinolin-3-yl]-2,4-dioxobutanoic acid ethyl ester] | > 12.3 µM | 0.25 µM |  |
